About 4,300 (8.3%) of roughly 52,000 compounds were called active. Rule as the data show it: active = survival mostly below about 52% (no sharp cut-off); inactive = mostly above about 56%. The list shows a part of the results.
The molecules below were run on DeltatarO mutant (assay: growth inhibition of S. aureus wild type versus tarO mutant, primary screen, teichoic acid synthesis inhibitors, RN4220, OD600 (AID 463173)). Settings: OD600, 18 h, hits give low values, screened at 18.75 µg/mL (by protocol).
With `COc1cc(NC(=O)CCc2c(C)nn(-c3ccc(N4CCOCC4)nn3)c2C)cc(OC)c1OC` the survival was inactive: 105%.
For `O=C1CC(Cc2ccccc2)C(=O)N1Cc1ccco1` (stereo not drawn), the survival was inactive: 76%.
With `COc1ccc2c(c1)c(=O)c(C(=O)c1ccccc1)cn2CC(=O)Nc1ccc2c(c1)OCCO2` the survival was inactive: 98%.
`COC(=O)c1cc(-c2ccccc2)oc1CN` was tested, and the survival was inactive: 91%.
For `CCn1c(SCC#N)nnc1-c1ccc(S(=O)(=O)N2CCCC2)cc1`, the survival was inactive: 97%.
With `CC1=C(C(=O)OCc2ccc(C)cc2)C(c2ccccc2F)CC(=O)N1` (stereo not drawn) the survival was inactive: 119%.
With `CCOc1ccccc1N1CCN(C(=O)C2CCN(Cc3ccc(OC)cc3)CC2)CC1` the survival was inactive: 98%.
`CC(C)Sc1nc2sc3c(c2c(=O)n1Cc1ccccc1)CCCC3` was tested, and the survival was active: 13%.
With `COC(=O)c1cc2oc3ccccc3c2n1Cc1nc(-c2ccccc2Cl)oc1C` the survival was inactive: 82%.
With `CC1(C)CC(=O)c2cc(-c3nc(-c4ccccc4)cs3)c(=O)[nH]c2C1` the survival was inactive: 88%.
With `Cc1ccc(NC(=O)C2CCN(S(=O)(=O)c3c(C)noc3C)CC2)cc1` the survival was inactive: 105%.
With `O=C(NCCN1CCN(c2ccccc2)CC1)Nc1cccc(Br)c1` the survival was inactive: 68%.
For `Cc1nnc(C)n1-c1ccc(C(=O)Nc2cccc(Br)c2)cc1`, the survival was inactive: 97%.
In the case of `Cc1c(Cl)cccc1NC(=O)CCCn1nc(C)c2sc3ccccc3c2c1=O`, the survival is reported as inactive: 75%.
`COCCCNC(=O)NC(CCC(C)C)c1c(-n2cccc2)sc2c1CCN(C)C2` (stereo not drawn) was tested, and the survival was inactive: 72%.
With `COc1cccc(N2CCN(c3c4c(nc5nncn35)CCC4)CC2)c1` the survival was inactive: 71%.
With `CCC1CCCCN1S(=O)(=O)c1ccc(NC(=O)c2cc(=O)c3c(C)cc(C)cc3o2)cc1` (stereo not drawn) the survival was inactive: 45%.
For `Cc1cccc(Cn2cc3c(=O)n(CC(=O)Nc4c(C)cccc4C)nc-3c3cc(F)ccc32)c1`, the survival was inactive: 79%.
In the case of `Cc1cccc2c1-c1sc(C(=O)N3CCN(c4ccccc4)CC3)cc1CO2`, the survival is reported as inactive: 65%.
In the case of `CCCCNS(=O)(=O)c1ccc2nc(-c3cccnc3)cc(C(=O)NCCCOC(C)C)c2c1`, the survival is reported as inactive: 75%.
In the case of `Cc1ccc2nc(NCc3ccccc3)c3nnnn3c2c1`, the survival is reported as inactive: 134%.
In the case of `CCOc1cccc(Nc2nn(-c3ccc(OC(F)(F)F)cc3)nc2C(C)=O)c1`, the survival is reported as inactive: 90%.
`CCOC(=O)c1cnc2c(C)c(Cl)ccc2c1NCCc1ccc(OC)c(OC)c1` was tested, and the survival was active: 17%.
With `CCOc1ccccc1CNC(=O)Cc1ccc(NC(=O)N2CCCCc3ccccc32)cc1` the survival was inactive: 120%.
With `COc1ccc(Nc2nc(-c3cccc(Cl)c3)c3c(n2)-c2ccccc2OC3)cc1` the survival was inactive: 62%.
`O=C(OCc1ccccc1)N1CCOCCN(C(=O)OCc2ccccc2)CCOCC1` was tested, and the survival was inactive: 75%.
For `CCOc1ccc(NC(=O)CSc2nc3ccsc3c(=O)n2C(C)CC)cc1` (stereo not drawn), the survival was inactive: 94%.
`CCOc1ccc(CCNC(=O)CCc2c(C)nc3c(c(C)nn3-c3ccc(C)c(C)c3)c2C)cc1` was tested, and the survival was inactive: 60%.
In the case of `COc1cc(-c2nc(S(=O)(=O)c3ccc(Br)cc3)c(N3CCOCC3)o2)cc(OC)c1OC`, the survival is reported as inactive: 84%.
For `COc1ccc(-c2noc(N(c3ccc(F)c(Cl)c3)c3nc(-c4ccc(OC)c(OC)c4)no3)n2)cc1OC`, the survival was inactive: 68%.
With `COc1ccc(Br)cc1C(=O)Nc1cccc2ccc(C)nc12` the survival was inactive: 73%.
With `CCc1nc2nc(C)cc(Nc3cc(Cl)ccc3C)n2n1` the survival was inactive: 65%.
For `CCc1ccc(CNC(=O)c2ccc3c(Cl)c4c(nc3c2)CCCC4)cc1`, the survival was inactive: 51%.
For `COc1ccccc1CNC(=O)c1cccc(N2CCCS2(=O)=O)c1`, the survival was inactive: 75%.
In the case of `Cc1ccc(N(CC(=O)NCCc2ccccc2C)S(=O)(=O)N(C)C)cc1`, the survival is reported as inactive: 75%.
In the case of `COc1ccccc1CNC(=O)Cn1c(=O)oc2cc(S(=O)(=O)N3CCCC3)ccc21`, the survival is reported as inactive: 119%.
With `CCOC(=O)c1ccc(NC(=O)C2CC(=O)NC(=Nc3ccc(C)c(C)c3)S2)cc1` (stereo not drawn) the survival was active: 47%.
For `Cc1cccc(NC(=O)Nc2ccc(F)cc2)n1`, the survival was inactive: 119%.
With `CCCCN(C)CCNC(=O)c1ccc(Cn2c(=O)[nH]c3cc(OC)c(OC)cc3c2=O)cc1` the survival was inactive: 83%.
In the case of `CCOC(=O)c1cnn(-c2ccc(C(=O)Nc3ccc(OC(F)(F)F)cc3)cc2)c1N`, the survival is reported as inactive: 124%.
With `Cc1cc(N2CCN(c3cccc(C)c3C)CC2)n2cnnc2n1` the survival was inactive: 99%.
`O=C(CCCCCN1C(=O)c2ccccc2C1=O)Nc1nccs1` was tested, and the survival was inactive: 101%.
In the case of `CC(=O)Nc1ccc(NC(=O)C2CCCN(S(=O)(=O)c3ccc4c(c3)CCCC(=O)N4)C2)cc1` (stereo not drawn), the survival is reported as inactive: 84%.
In the case of `COc1ccccc1CNC(=O)Cn1c(=O)nc(-c2ccccc2)c2ccccc21`, the survival is reported as inactive: 94%.
In the case of `COC(=O)c1ccc(NC(=O)CN(Cc2ccccc2)S(=O)(=O)c2ccc(Cl)cc2)cc1`, the survival is reported as active: 40%.
With `CCCSc1nnc2c(n1)OC(c1cccs1)Nc1ccc(Br)cc1-2` (stereo not drawn) the survival was active: 30%.
`Cc1c(Cl)cccc1NC(=O)Nc1ccc2snnc2c1` was tested, and the survival was active: -4%.
`CCn1nc(C)c(NC(=O)CCSc2nc(-c3ccco3)cc(C(F)(F)F)n2)c1C` was tested, and the survival was inactive: 56%.
`Oc1c(C(c2ccccc2F)N2CCCC2)sc2nc(-c3ccco3)nn12` (stereo not drawn) was tested, and the survival was inactive: 81%.
`O=C(NCCc1ccccc1)c1ccc(CS(=O)(=O)c2ccc(Cl)cc2)o1` was tested, and the survival was inactive: 94%.
With `COc1cccc(C(=O)n2nc(-c3cccnc3)nc2NCc2ccc(F)cc2)c1` the survival was inactive: 71%.
In the case of `CCN(CC)CCSc1nnc2c3cc(F)ccc3n(CC)c2n1`, the survival is reported as inactive: 171%.
With `O=C(NCc1ccccc1Cl)c1nnc(Cc2ccc(Cl)cc2)o1` the survival was inactive: 93%.
With `COc1ccc(-c2noc(CSc3nnc(C)n3-c3ccc(C)c(C)c3)n2)c(OC)c1` the survival was inactive: 60%.
For `COc1ccc(-c2nc(SCC(=O)NCCc3ccccc3)n[nH]2)cc1`, the survival was inactive: 88%.
With `Cc1ccc2onc(CC(=O)N3CCN(c4ccccc4)CC3)c2c1` the survival was active: 40%.
For `CCOc1ccc(NC(=O)C(C)n2c(=O)cc(C)c3c(C)nn(-c4ccccc4)c32)cc1` (stereo not drawn), the survival was inactive: 83%.
`CCc1ccc(OCC(=O)Nc2ccc3c(c2)c2ccccc2n3CC)c(Br)c1` was tested, and the survival was active: 6%.

Reference: PubChem BioAssay AID463173 (ICCB-Longwood Screening Facility, Harvard Medical School, 2010)
